# Results from publication PMC4336329 (PLoS ONE, 2015).
# Screen size: about 310,000 compounds; about 14,000 (4.5%) showed an effect of 50% or more. The effect is printed as a negative number. This is one part of the list.
# Molecular target: human ether-à-go-go-related gene (hERG) potassium channel (human, UniProt Q12809)
# Test: primary screen, population patch clamp on CHO cells stably expressing hERG
# 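Note: peak tail current of the secondary pulse compared with the same well before compound.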
# human ether-à-go-go-related gene (hERG) potassium channel, sequence (Q12809 whole entry, looked up): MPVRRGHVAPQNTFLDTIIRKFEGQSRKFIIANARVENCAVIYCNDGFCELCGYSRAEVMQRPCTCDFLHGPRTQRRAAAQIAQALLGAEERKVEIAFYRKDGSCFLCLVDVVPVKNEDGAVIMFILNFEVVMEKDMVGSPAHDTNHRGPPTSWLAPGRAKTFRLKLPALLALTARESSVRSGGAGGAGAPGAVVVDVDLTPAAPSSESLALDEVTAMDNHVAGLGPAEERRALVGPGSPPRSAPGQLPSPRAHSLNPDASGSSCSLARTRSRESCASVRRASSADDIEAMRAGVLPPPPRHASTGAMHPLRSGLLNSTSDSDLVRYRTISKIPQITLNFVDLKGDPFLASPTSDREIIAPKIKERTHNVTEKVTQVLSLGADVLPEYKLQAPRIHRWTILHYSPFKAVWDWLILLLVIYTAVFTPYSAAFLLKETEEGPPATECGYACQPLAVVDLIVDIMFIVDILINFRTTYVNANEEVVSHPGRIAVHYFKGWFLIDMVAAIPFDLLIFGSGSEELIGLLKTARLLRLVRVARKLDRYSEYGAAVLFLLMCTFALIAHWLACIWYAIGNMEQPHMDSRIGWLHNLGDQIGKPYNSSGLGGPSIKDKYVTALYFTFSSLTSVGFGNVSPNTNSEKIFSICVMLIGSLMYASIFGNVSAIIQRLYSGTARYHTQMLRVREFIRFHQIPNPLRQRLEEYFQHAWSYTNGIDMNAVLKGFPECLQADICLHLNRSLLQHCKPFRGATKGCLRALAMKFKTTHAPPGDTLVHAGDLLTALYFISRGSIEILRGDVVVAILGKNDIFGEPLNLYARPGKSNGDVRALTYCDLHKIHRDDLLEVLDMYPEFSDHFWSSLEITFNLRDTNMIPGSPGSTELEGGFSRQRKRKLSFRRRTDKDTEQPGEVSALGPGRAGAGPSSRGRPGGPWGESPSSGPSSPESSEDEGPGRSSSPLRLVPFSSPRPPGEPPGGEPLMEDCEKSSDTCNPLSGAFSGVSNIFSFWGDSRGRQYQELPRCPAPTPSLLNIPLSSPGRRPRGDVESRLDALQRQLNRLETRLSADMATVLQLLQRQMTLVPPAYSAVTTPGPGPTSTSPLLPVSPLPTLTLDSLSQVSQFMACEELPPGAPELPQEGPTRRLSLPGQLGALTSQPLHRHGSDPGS
row,Structure (SMILES),"hERG current change (%, negative = inhibition) at 10uM"
1,COC(=O)C(Cc1ccccc1)P(=O)(c1ccccc1)c1ccccc1 (stereo not shown),-6.24%
2,COC(=O)c1cc(OC)c(OC)cc1NC(=O)Nc1ccccc1OC,4.31%
3,COc1ccc(OCc2cc(C(=O)NCCN3CCCC(O)C3)no2)c(Cl)c1 (stereo not shown),-28.5%
4,CC1=C/C(=N\N=C2\NC(=O)C(CC(=O)Nc3ccccc3)S2)CC(C)(C)C1 (stereo not shown),6.79%
5,CCN(CC)c1ccc(/C=C(/C#N)c2nc3ccc(C)cc3[nH]2)c(OC(C)C)c1,23.9%
6,COc1cc(CO)ccc1Oc1nc2ccccc2n2cnnc12,10.7%
7,NC(=O)N=Nc1c(O)[nH]c2ccc([N+](=O)[O-])cc12,45.3%
8,CC(C)CN(C(=O)COC(=O)Cc1n[nH]c(=O)c2ccccc12)C1CCS(=O)(=O)C1 (stereo not shown),10.6%
9,O=C(O)c1ccc(COc2ccc3c4c(c(=O)oc3c2)CCC4)o1,21.4%
10,O=S(=O)(N/N=C/c1ccc2c(c1)OCO2)c1ccc(Br)cc1,5.05%
11,CN(C)C(CNC(=O)c1ccc(S(=O)(=O)Nc2ccccc2)cc1)c1ccco1 (stereo not shown),9.68%
12,Cc1[nH]c2ccccc2c1C1C(c2ccccc2)=NN=C(C(C)C)N1O (stereo not shown),1.39%
13,CS(=O)(=O)N(Cc1ccc(C(=O)NCCSc2ccccn2)cc1)c1ccccc1,2.06%
14,CN=C(Nc1cc(Cl)ccc1Cl)SC1CC(=O)N(c2ccc(C(=O)OC)cc2)C1=O (stereo not shown),9.69%
15,O=C(NNC(=S)Nc1ccccc1)c1ccccc1[N+](=O)[O-],26.2%
16,CCC(C)(c1ccc(C=O)s1)c1ccc(C=O)s1,-39.4%
17,CCn1c(=O)cc(OCC(=O)NCC2CCCO2)c2ccccc21 (stereo not shown),20%
18,Nc1cc(=O)[nH]c(SCC(=O)Nc2cc([N+](=O)[O-])ccc2Cl)n1,26%
19,CCOC(=O)C1CCN(C(=O)CSc2nc(N)cc(=O)[nH]2)CC1,19%
20,COc1cc(OC)c(C2C3=C(CCCC3=O)Nc3nc4ccccc4n32)cc1OC (stereo not shown),4.1%
21,C/C(=C\C(=O)c1ccccc1)NNc1nc2ccccc2s1,-1.63%
22,CCN(CC)C(=O)c1c2c(nc3ccccc13)-c1ccccc1CC2,-12.6%

row,Structure (SMILES),"hERG current change (%, negative = inhibition) at 10uM"
1,COc1ccc(NCc2nnc(SCC(=O)Nc3ccc(OC)cc3)n2C)cc1,-62.3%
2,COc1ccc(/C(O)=C2/C(=O)C(=O)N(CCN3CCOCC3)C2c2ccc(C)cc2)cc1 (stereo not shown),-14.1%
3,Cc1ccc(CS(=O)Cc2ccc(C(=O)N3CCN(c4ccccc4)CC3)o2)cc1 (stereo not shown),-14.8%
4,CN(C)CCCNCCCCNC(=O)/C=N/O,0.266%
5,CN(C)S(=O)(=O)CC12CCC(CC1=O)C2(C)C (stereo not shown),5.43%
6,N#Cc1ccccc1Cn1cc(C(=O)c2ccccc2F)c2ccccc21,4.67%
7,CC(C)(O)C#Cc1ccc(C(=O)N2CCN(c3ccc(Cl)cc3)CC2)cc1,-9.19%
8,COc1cc(/C=N\NC(=O)c2ccc(C)nc2)ccc1OC(=O)c1cccc(F)c1,-8.51%
9,CC(C)CCNc1nc2c(c(=O)n(Cc3cccc(F)c3)c(=O)n2C)n1C,-11.9%
10,COc1cccc(Nc2nnc(SCC3CCCCO3)s2)c1 (stereo not shown),-21.1%
11,CC(=O)N1CCOc2ccc(S(=O)(=O)Nc3ccc(Cl)cn3)cc21,15.7%
12,COc1ccc(/C=N/NC(=O)CCn2c3ccccc3c3ccccc32)cc1O,5.18%
13,O=[N+]([O-])c1cccc(-c2nnc(C34CC5CC(CC(C5)C3)C4)o2)c1,9.11%
14,CN1CCc2nc(SCC(=O)Nc3ccc(F)cc3)c(C#N)cc2C1,-22.7%
15,O=C(O)CCCC(=O)Nc1ccc(C(=O)N2CCCCC2)c(Cl)c1,4.23%
16,O=C(NCc1ccco1)C1(c2ccc(Br)cc2)CCCC1,10.6%
17,CCN1CCN(S(=O)(=O)c2ccc(Br)s2)CC1,-5.03%
18,O=C(CSc1nnc(NC(=O)c2ccccc2Cl)s1)NC1CC1,4.44%
19,COc1ccc(NC(=O)CN(C)C(=O)CC2CCCC2)cc1,3.53%
20,CCC(C)c1ccc(NC(=O)c2[nH]c(C)c(C(C)=O)c2C)cc1 (stereo not shown),-18.5%
21,COc1ccc(C(=O)NC(C)CCCC(C)(C)O)cc1OC1CCN(C(C)=O)CC1 (stereo not shown),14.5%
22,N/C(=N\OS(=O)(=O)c1ccc(Cl)cc1)c1ccncc1,-2.67%

row,Structure (SMILES),"hERG current change (%, negative = inhibition) at 10uM"
1,Cc1nnc(SCC(=O)NNC(=O)c2ccc(Cl)cc2)n1CC1CCCO1 (stereo not shown),-3.08%
2,COc1cc(C(CCN2CCCC(C)C2)c2c(OC)cc(OC)c3c2OC(=O)CC3c2ccc(N(C)C)cc2)cc(OC)c1OC (stereo not shown),-30.3%
3,CCOc1ccccc1NC(=O)c1ccc2c(c1)C(=O)N(CC(C)C)C2=O,11.1%
4,Cc1cc(-c2ccc(S(=O)(=O)N3CCN(C)CC3)s2)on1,-5.55%
5,CCCNc1nc(N)nc(-c2cc(Cl)ccc2OC)n1,9.18%
6,COc1cc(C2N(c3ccccn3)C(=O)C3CCCN32)cc(OC)c1OC (stereo not shown),-2.76%
7,CC1OC2(C)OC(=N)C1(C#N)C(C#N)(C#N)C2c1ccccc1 (stereo not shown),32.2%
8,O=C(Nc1cccc(NC(=O)c2ccc(-c3ccc(Br)cc3)o2)c1)c1ccccc1,-1.85%
9,CCC(Cc1ccccc1)NC(=O)c1ccc2nc(N3CCOCC3)sc2c1 (stereo not shown),-46.5%
10,CCOc1ccc(NS(=O)(=O)c2ccc(SC)cc2)cc1,-18.7%
11,COc1ccc(NC(=O)CCc2nnc3ccc(NCc4ccco4)nn23)cc1,1.15%
12,Clc1ccc(-c2ccn[nH]2)cc1,3.54%
13,COCCOC(=O)c1c(C)nc(SCC(=O)Nc2ccc(C)cc2)c(C#N)c1-c1ccco1,10.5%
14,CCN1C(=O)[C@@H]2[C@H](C1=O)[C@@H]1C(=O)Nc3ccccc3C(=O)N1[C@@H]2c1ccccc1,0.807%
15,CN(CC1CCCN(CCc2ccc(Cl)cc2)C1)C(=O)c1ccoc1 (stereo not shown),-85.7%
16,COC(=O)c1ccc(NC(=O)c2ccc(C)cc2)o1,-0.404%
17,O=C(O)CNC(=S)N(Cc1ccco1)Cc1ccccc1Cl,6.98%
18,CCc1noc(C)c1C(=O)NNC(=O)c1ccc(Br)cc1,15.9%
19,Cc1noc(C)c1C(=O)Nc1cc(Cl)ccc1N1CCOCC1,-0.777%
20,O=C(c1cc(C2CC2)nc2ccccc12)N1N=C(C(F)F)CC1(O)C(F)F (stereo not shown),-18.3%
21,Cc1cc2c3c(c1)C1(C(=O)N3C(C)(C)CC2C)C(C#N)=C(N)OC2=C1C(=O)CC(C)(C)C2 (stereo not shown),5.48%
22,O=C(CCS(=O)(=O)c1ccccc1)Nc1ccc(N2CCN(Cc3ccccc3)CC2)cc1,-15.1%

row,Structure (SMILES),"hERG current change (%, negative = inhibition) at 10uM"
1,COc1ccc(N2CCN(CCNC(=O)c3c(C)cc(=O)oc3C)CC2)cc1,-12.2%
2,CCOC(=O)C(NC(C)=O)C(O)c1ccc([N+](=O)[O-])cc1 (stereo not shown),-6.32%
3,COc1ccccc1N1CCN(CC(O)COCc2cccs2)CC1.Cl (stereo not shown),-19.8%
4,COc1cc2oc(=O)cc(C)c2c(OC)c1OC,17.9%
5,CCOc1ccc(NC(=O)c2ccc3c(c2)OCCO3)cc1S(=O)(=O)N(CC)CC,-22.4%
6,COc1ccccc1N(CC(=O)Nc1ccccc1C(=O)NC(C)C)S(C)(=O)=O,10.9%
7,O=C(OC(C(=O)NC1CCCC1)c1cccnc1)C1=Cc2ccccc2OC1 (stereo not shown),-4.75%
8,COCCCNC(=O)CCCn1c(=O)c2ccccc2n(CC(=O)Nc2c(C)cc(C)cc2C)c1=O,-0.964%
9,O=C(CN1CCCCC1)NC(=O)NCc1ccccc1,14.3%
10,O=C(N/N=C/c1ccc(O)c(O)c1O)/C(=C/c1ccc([N+](=O)[O-])cc1)NC(=O)c1ccccc1,12.4%
11,Cl.O=C(O)c1ccc(CN2CCCCC2)o1,10.7%
12,O=C(NNS(=O)(=O)c1ccccc1)c1ccncc1,15.1%
13,CCCCNC(=O)C(=O)Nc1cc2c3c(c1)CCC(=O)N3CCC2,8.48%
14,Cc1ccc(/C=C(\NC(=O)c2ccccc2)C(=O)NCCc2ccccn2)o1,-12.8%
15,O=C(NCCO)C(=O)Nc1cc2c3c(c1)CC(=O)N3CCC2,16.7%
16,CC(C)(C)N=Cc1cc(-c2ccccc2)sc1O,-17.2%
17,COc1ccc(CC(=O)NCC(=O)Nc2ccccc2Br)cc1,12%
18,Clc1ccc(NCc2cccnc2)cc1,-11.6%
19,CN(CC(=O)N1CCN(c2ccccc2)CC1)S(=O)(=O)c1cnc[nH]1,15.1%
20,O=C(O/N=C1/CCCc2occc21)c1ccccc1,4.19%
21,CCOC(=O)c1nn(-c2ccccc2)c(C#N)c1NC(=O)c1nn(CC)cc1Br,7.47%
22,Cc1ccc(OCC(=O)N(C)CC(=O)N(CC(C)C)c2c(N)n(CC(C)C)c(=O)[nH]c2=O)c(C)c1,16.8%
